This is one part of the list.
B1: chr15:76949589:76949706:+|3pUTR|ENSG00000117906|msi1_unk|FALSE|overlapping (ssRNA)
RNA: GGGAGUUCUACAGUCCGACGAUCAUAAAUUUUUGUUUUUGUUCUAAGUAGAUUUAAUUUGGGAACUGACAGGACAAUGUUUUUAGGUUUAGCAUUUUGUUUAAAAACCUUUAAAGAAACCUUUAGAAGGACUUAGACCUCACACAACAGAGGAUUGAGCAUCA
B2: chr12:121847077:121847190:-|CDS|ENSG00000158104|unk|total|mutant (ssRNA)
RNA: GGGAGUUCUACAGUCCGACGAUCAAAAACCUGCAGUUCCACCGCUUCUGGUCCGUGGAUGACACGCAGGUGCACACGGAAUACCGCUCUCUGCGAUCCAUUGUGGUGGCCAACUAUGAAGAGUCCAUCAAGAUGCCCAUCAAUCAACAGAGGAUUGAGCAUCA
B3: ENSG00000112339:stop:overlap|stop_codon|ENSG00000112339|stop_codon|NA|stop_codon (ssRNA)
RNA: GGGAGUUCUACAGUCCGACGAUCUGAAGGACAAGAAUGAGGCAACAGUAUCUACAGGAAAGAUAGCAAAAGGCCCUUGCUGCUAGACCUUCAGCUUUUGCCUCAACACUGUGUCUUCGUUACCCACUGAAAAGCUGCAAGCGACAACAGAGGAUUGAGCAUCA
B4: ENSG00000101596:stop:overlap|stop_codon|ENSG00000101596|stop_codon|NA|stop_codon (ssRNA)
RNA: GGGAGUUCUACAGUCCGACGAUCUUAGUUGUAAUAAAAUAAAAGAUAAUGACAAAGAAGAUGGCUGCUUCUAUUUCAGGUUAUAGUUGAAGUCCUGCCUAAUCAACCUGUGAAGUUAGUACCUAAAAUUAAACCACCUACACCCAACAGAGGAUUGAGCAUCA
B5: chr19:51415897:51416167:-|CDS|ENSG00000142512|control|control|control (ssRNA)
RNA: GGGAGUUCUACAGUCCGACGAUCGCCACACUGAGCUGGGUCCUGCAGAACAGAGUCCUCUCCUCGUCCCAUCCCUGGGGCCCUAGACCCCUGGGGCUGGAGCUGCCCGGGGUGAAGGCUGGGGAUUCAGGGCGCUACACCUGCCAACAGAGGAUUGAGCAUCA
B6: chr4:108667468:108667493:+|3pUTR|ENSG00000198856|msi1_unk|total|mutant (ssRNA)
RNA: GGGAGUUCUACAGUCCGACGAUCGAAUUUUUUUUCCUGCUGGCCUAUUGCUAUACCAAUGAUGUUGAGUGGCAUUUUCUUUUCCGUUUUUCAUUAAAAUAUAUUCCAUAUCUACAACUAUAAUAUCAAAUAAAGUGAUUAUUUCAACAGAGGAUUGAGCAUCA
B7: chrX:119243754:119243940:+|3pUTR|ENSG00000101856|msi1|total|mutant (ssRNA)
RNA: GGGAGUUCUACAGUCCGACGAUCAGCUGCAAAAAAGCAUAUUUUCUGUGUUUCUGGACUGCACUGUUGUCCUUGCCCUCACACCGACACUCAGACACCCUCACAAACACAGCCGUCUACCGUCCGGAUUAAAACCGGAUCUGACAACAGAGGAUUGAGCAUCA
B8: chr8:28970260:28970371:+|CDS|ENSG00000147421|unk|total|mutant (ssRNA)
RNA: GGGAGUUCUACAGUCCGACGAUCUCUUCCUCUACAGCUACAGCUUCCACACAGACGCAGCAUUCGGGAAUGUCCCCGUCACCCCGCAACAGUUAUGAUACUUCCCCACAGCCUUGCACUACCAAUCAAAAUGGGAGGGAGAAUCAACAGAGGAUUGAGCAUCA
B9: ENSG00000107863:be:win_3101|CDS|ENSG00000107863|bound_else_gene|NA|bound_elsewhere_windowed (ssRNA)
RNA: GGGAGUUCUACAGUCCGACGAUCCGAUCCAGGAGAGCAGCAACCUAAACGAAGAGGACACUGGAGUCACUAACAGGGAUCUAAUUAGUCGAAGAAUAAAAGAAUACAACAAUCUGAUGAGCAAAGCAGAACAGUUGCCAAAAACAACAGAGGAUUGAGCAUCA
B10: chrX:119243474:119243703:+|3pUTR|ENSG00000101856|msi1|total|mutant (ssRNA)
RNA: GGGAGUUCUACAGUCCGACGAUCGGUAUUUCCCAAAACAGGUAAAAAUCUUAAAUGUGCACCAAGAGCAAAGGAUCAACUUUCCGUCAUGAUGUUCUGUAAAGACAACAAAUCCCUUUUUUUUUCUCAAUUGACUUAACUGCACAACAGAGGAUUGAGCAUCA
B11: chr17:47658542:47658643:+|CDS|ENSG00000108424|unk|FALSE|unique (ssRNA)
RNA: GGGAGUUCUACAGUCCGACGAUCGAUUCUGACUGCCAUAAUCCAGGGGAUGAGGAAAGAAGAGCCUAGUAAUAAUGUGAAGCUAGCUGCUACGAAUGCACUCCUGAACUCAUUGGAGUUCACCAAAGCAAACUUUGAUAAAGACAACAGAGGAUUGAGCAUCA
B12: ENSG00000070961:be:win_3651|CDS_3pUTR|ENSG00000070961|bound_else_gene|NA|bound_elsewhere_windowed (ssRNA)
RNA: GGGAGUUCUACAGUCCGACGAUCAACAUCACUCUGAUUGUAAGCUGAAUGUUAACACACUAGCUGCAUUGUAAAGAAACAAAUUGAAACUGGGUCUUUUCACAUAUUGUGAUGGACAAGCUAGUAUUCUUGUCUUUGGACUUCCAACAGAGGAUUGAGCAUCA
B13: chr4:125449804:125449905:+|CDS|ENSG00000196159|msi1|FALSE|unique (ssRNA)
RNA: GGGAGUUCUACAGUCCGACGAUCAAACAGAUCUUAAAAUACCAAAAUGUCACUGGCUUCAGUAAUGUGAAUAUCAACAGGCAUAGUUUUAUAGUGACAUCUUCAGAUCGAGGUAAACCUUCCUUAAUUAGUGAGACAACAGUUCAACAGAGGAUUGAGCAUCA
B14: chrX:72139229:72139330:+|CDS|ENSG00000204131|unk|FALSE|unique (ssRNA)
RNA: GGGAGUUCUACAGUCCGACGAUCUCCCUUAGUGCCCAGCAAGAGGCCCAGCACAGAAGGCAGAGGUCCAAGAGUAUCUCACUUAGGAAGGCCAAAAAGAAGCCUUCCCCACCCACACGCAGUGUCUCACUGGUCAAAGAUGAGCAACAGAGGAUUGAGCAUCA
B15: chrX:48915045:48915146:-|CDS|ENSG00000102096|unk|FALSE|unique (ssRNA)
RNA: GGGAGUUCUACAGUCCGACGAUCCCAGCACUGCCAUUCCCGUGGAGUUGUCCAUCGUGACAUCAAGGAUGAGAACAUCCUGAUAGACCUACGCCGUGGCUGUGCCAAACUCAUUGAUUUUGGUUCUGGUGCCCUGCUUCAUGACAACAGAGGAUUGAGCAUCA
B16: chr6:98868534:98874277:-|three_prime_utr|ENSG00000112234|control|control|control (ssRNA)
RNA: GGGAGUUCUACAGUCCGACGAUCAUUAAAAUUAAUGUGCUUUGUUGGGGUUUAAUUUUGGGAUUGGUUUUGGGUUUUGUUUUUAGUUGUUUUAAUGGUAAGAAUUAAGACAUUUGUAGAUUUUAAAGAAAAAUAUGAAAUUGUCAACAGAGGAUUGAGCAUCA
B17: ENSG00000071553:stop:overlap|stop_codon|ENSG00000071553|stop_codon|NA|stop_codon (ssRNA)
RNA: GGGAGUUCUACAGUCCGACGAUCCCCCCCAUGACACUGACGCCCAUUCCCCAAGGGAAGCUUCAGUGACCUUGUCCCAACUGUAGGGAGGUGUGGGUCGUCUCAUGGGAAGGCCUGUAGUAAACGCUUCAGUGGGCAUGGCGACAACAGAGGAUUGAGCAUCA
B18: chr19:7961171:7961272:-|3pUTR|ENSG00000066044|msi1|total|mutant (ssRNA)
RNA: GGGAGUUCUACAGUCCGACGAUCGGCGGGAUUCCCGCUUCUGAAACUCCCCCUGGAGUCUCACUCCCACACAUGCCCACCGCCCGCAUUCAACAGAGAACUCUGUCUUAAGCUUCAACUGUGAAAAUGAUGACGGGCUUGCCGCAACAGAGGAUUGAGCAUCA
B19: ENSG00000198589:be:win_5951|CDS|ENSG00000198589|bound_else_gene|NA|bound_elsewhere_windowed (ssRNA)
RNA: GGGAGUUCUACAGUCCGACGAUCACUGGGAAGAUGACUUGCGGCGCCGGCGACGAUUUGUGCGUAACCCUCUAGGAUCGACACAUCCUGAAGCGACACUAAAAACAGCCGUGGAACAUGCCACAGAUGAAGAUAUCCUUGCUACAACAGAGGAUUGAGCAUCA
B20: chr17:44678858:44679043:-|CDS|ENSG00000180329|control|control|control (ssRNA)
RNA: GGGAGUUCUACAGUCCGACGAUCUCGGGAUGAAUCCCAAAGGAAGAAGGAACAGGACAAGCUGCAGAGGGAGAGAGACAAACUAGCCAAGCAGGAGCGCAAGGAAAAGGAAAAAAAAAGGACACAGAGAGGGGAGCGAAAGCGCAACAGAGGAUUGAGCAUCA
B21: chr1:113797602:113797710:-|CDS|ENSG00000081019|unk|total|mutant (ssRNA)
RNA: GGGAGUUCUACAGUCCGACGAUCUUUAUGACUCACCAGGAACAUUCUAUUCGCCGAAAUUUCUUAAAAACAGGUACUAAAUUCCGCAACUUUAUUCAUGAGGAACACCAGUCCAAUGGUGGUGCUCUUGUCCUUCAUGCUUACCAACAGAGGAUUGAGCAUCA
B22: chr11:214995:215097:+|3pUTR|ENSG00000177963|unk|total|mutant (ssRNA)
RNA: GGGAGUUCUACAGUCCGACGAUCCCUCCUUCCUACUGGUUCCGACUACACUUACAACAAGGAAAAUGCCCCUCGUGUGACCACCGAUUGAGAUUUAUACCACAUACCACACACCGCCACAGAAACAUCAUCUUGAAAUAAAGACAACAGAGGAUUGAGCAUCA

target: MSI1 full-length (mouse, UniProt Q61474 1-362); assay: nsRBNS (natural sequence RNA bind-n-seq); RBNS binding buffer (assumed for nsRBNS): 25 mM Tris pH 7.5, 150 mM KCl, 3 mM MgCl2, 0.01% Triton X-100, 500 ug/ml BSA, 20 U/ml SUPERase-In, 4 C; UNK is unkempt and MSI1 is Musashi-1; names of the RNAs are library labels; protein concentration not given here; high values mean tight binding
Chain of UniProt Q61474 (Q61474 whole entry): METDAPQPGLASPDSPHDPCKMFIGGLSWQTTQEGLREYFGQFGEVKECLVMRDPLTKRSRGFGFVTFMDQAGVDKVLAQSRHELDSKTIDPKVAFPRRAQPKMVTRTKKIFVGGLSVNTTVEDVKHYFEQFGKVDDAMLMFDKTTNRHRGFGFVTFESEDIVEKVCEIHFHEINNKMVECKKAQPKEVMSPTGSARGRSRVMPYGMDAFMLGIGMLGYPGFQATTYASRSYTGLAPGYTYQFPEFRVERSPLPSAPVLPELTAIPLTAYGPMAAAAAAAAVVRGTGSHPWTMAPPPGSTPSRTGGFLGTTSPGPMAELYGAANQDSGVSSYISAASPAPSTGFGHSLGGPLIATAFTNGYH

First: B1
Second: B2
The binding signal of the first is higher: 7.37 enrichment R for the first, 0.309 enrichment R for the second.

Going from B3 to B4, the binding signal rises from 0.369 enrichment R to 0.652 enrichment R.

Compared with B5, B6 is higher in binding signal: 0.51 enrichment R for the first, 1.01 enrichment R for the second.

First: B7
Second: B8
The binding signal of the first is lower: 0.3 enrichment R for the first, 0.528 enrichment R for the second.

Compared with B9, B10 is lower in binding signal: 0.93 enrichment R for the first, 0.439 enrichment R for the second.

Compared with B11, B12 is lower in binding signal: 0.756 enrichment R for the first, 0.241 enrichment R for the second.

First: B13
Second: B14
The binding signal of the first is higher: 9.05 enrichment R for the first, 0.592 enrichment R for the second.

Compared with B15, B16 is higher in binding signal: 0.365 enrichment R for the first, 21.9 enrichment R for the second.

First: B17
Second: B18
The binding signal of the first is higher: 0.518 enrichment R for the first, 0.295 enrichment R for the second.

Going from B19 to B20, the binding signal rises from 0.307 enrichment R to 0.589 enrichment R.

Compared with B21, B22 is higher in binding signal: 0.252 enrichment R for the first, 0.839 enrichment R for the second.

Reference: article PMC12136788
